# In the supplement of paper PMC11417369:
# The list shows a part of the results.
# Test system: PfSIP2 AP2 domain 1 (GST-tagged)
# Experiment: gcPBM binding intensity (ln(normalized median fluorescence intensity)); higher = stronger DNA binding
# Method in brief: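 Alexa488 anti-GST antibody, scanned at 488 nm, detected GST-tagged P. falciparum DNA-binding domains that had been expressed in E. coli and incubated for 1 h on an Agilent 4 × 180k array. The array carried primer-extended double-stranded 36-bp intergenic genomic probes and negative controls. Binding intensity is the highest Masliner-normalised natural-log median intensity across replicate spots of either orientation of each probe.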
row,Sequence,gcPBM binding intensity (ln)
1,TTTTTCCCCCTTTTTTTGATTTTTATCTTAATTCTA [TGCATGCA_negctrl_site287],6.85
2,TATTATATTGTTCATTTACACTTTCATTTTAAAAAA [CACACA_negctrl_site260],7.11
3,AATGATGTTGTATTGTTTCGATATAACATCTAATTT [GTGCAC_negctrl_site309],6.66
4,TTTTTTAAAATAATAGGTACACATAAAAAAAAAAAA [XGTACX_site2517],7.26
5,AAGGATTATTTTAATCGTACATGTGTAAATAATATA [XGTACX_site6177],6.98
6,TTTTTTCATTTTTTATTTTTTTATTTTTTACATATT [GTGCAC_negctrl_site137],6.92
7,TATATATATAGACACACACACATATAAATAAATAAA [CACACA_site444],8.07
8,CATACATACATACATACACACATATATATATATATG [CACACA_site1995],8.02
9,TTATTTATTTTCATATGTACTTATTTATAGAGGTTG [XGTACX_site5599],7.28
10,AATAATATACCTCTTGTGCACATATTAAAAGTTCAT [GTGCAC_site9536],9.3
11,TTCGTCTTTTTTCTCACACACCCTTTTTATTAAAAG [CACACA_site7225],7.86
12,AAAGAATACATATATTGTACATATATATATACCGTT [XGTACX_site6250],6.94
13,AGAATTAAAATAAAGGTGCATTTTTTTGTTTCATGT,11
14,ATAATACAAAACACAAGTACATAAATTAAAAAGATG [XGTACX_site7839],7.1
15,TTCATTCATTTTATTACACACAAAAAAAAAAAAAAA [CACACA_site3680],7.13
16,AGTTATTTTATAGAATATGAATAATTTTACTTTTCA [XGTACX_negctrl_site403],6.55
17,AAAAAAAAAGGTACTACACACTATTCTCAATAGAAA [CACACA_site6193],6.64
18,AATTTCATTTTACTTATCTAATATTTATAATCTTTT [CACACA_negctrl_site636],6.9
19,AATTTTTATATAATTTAACACACATTTCATATAAAA [CACACA_site9018],7.15
20,TTAGGATATTTATTTCGTACATATATTTTTAATTGT [XGTACX_site582],6.9
21,TATAAATTATTTATCACACATAAAACAAAAATAAGA [CACACA_site5493],7.32
22,TACTTCATATAATTAGCACACAATAATTTCTCATTT [CACACA_site2872],7.23
23,ATATATATTAAAAATAGTACATATAATAAAAATCAT [XGTACX_site4265],7.11

row,Sequence,gcPBM binding intensity (ln)
1,TACATATTCCTACAAATGTATAAATTATAAATATTA [XGTACX_negctrl_site30],6.82
2,AACGATATAGGTACTACACACATTATGTCATCCTAT [CACACA_site7205],6.95
3,TGTATATGTTTAATTAGTACATATAAAGTAACAATA [XGTACX_site1207],7.04
4,ATATGAAATATATGTAGTACACATAATTAAAAGTAG [XGTACX_site6490],7.27
5,GATATGTTTTCCTAGGTTCATGATGATAGGTAGTTT [XGTACX_negctrl_site217],7.07
6,TTTGTGGTTACATGTGCACACACTTATTTCGTTCTT [CACACA_site1435],8.22
7,TGTTAATATATCATTATGTTATAGGTTCAGCTGGGA [CACACA_negctrl_site401],6.82
8,AATATATAAATTGACACACACATATATACATATATA [CACACA_site1213],7.04
9,AAGGTGGTTATTAAATGTACACAGACATATACAAAA [XGTACX_site3007],7.04
10,ATATGCTACATTATATGTACACACATATACATATAT [XGTACX_site1656],7.18
11,TAATATAAAGAAATATCAATAATTTGGGCAAATGCC [GTGCAC_negctrl_site621],6.86
12,AGGTAGAAAAAAGACACACACATTATATATATATAT [CACACA_site4367],9.34
13,TTTTATGCATGTGAAGTGCAAAATAAAAAATAAAAT [GTGCAC_site9612],10.2
14,TATATTTGTTAATTTTGTACGTATGGATATACATAA [XGTACX_site5100],7.13
15,TATAAATATAGAATTACACACAATGTTCTATAAATA [CACACA_site7508],6.65
16,AAAAAAATAATTTGTAGTACGATTCAATGAAAAGGC [XGTACX_site1287],7.44
17,ATACATATATACATATGTACATATATATATATATAT [XGTACX_site8206],8.9
18,TCTTTGAATTTTTTAACACACACATGGGTGGATATA [CACACA_site8474],6.9
19,TTGAAAATGAAAAAATGTACTTAAAAAAAAGGAACA [XGTACX_site8664],7.33
20,ATAAAATTGTATAACTGTACATATATATATATATAT [XGTACX_site5596],9.37
21,CCCACAAAGGAATATACACACATATATATATATATA [CACACA_site4091],9.71
22,TAAATATTTTTTTAGACACACATATATCTATGATAT [CACACA_site1107],6.71
23,ATGCTATATTAAAAACGTACAAACTGTTTAGAAAAA [XGTACX_site8943],7.01

row,Sequence,gcPBM binding intensity (ln)
1,TTTTTTCTTAAAGACATATATTTATTTGGTAAAACA [XGTACX_negctrl_site243],6.85
2,GGATATAACAGACACACACACACATATAAATATATT [CACACA_site7866],7.22
3,CAAAATAAAAATTAATGTACATAAAAAATGAATATA [XGTACX_site1085],7.02
4,TATTTACATTTATGTGCACACATTCCATTTGAAAGT [CACACA_site1954],8.85
5,AATAGAAAAAAAAAATGTACACATATAAAAGCATAT [XGTACX_site6306],6.94
6,CGGACATACATAGGAACATGCAAAATTTTTTATTTT [TGCATGCA_site575],6.78
7,TATTTTCTTTTTCTTGTACACACATAATATGGATGA [CACACA_site8168],7.15
8,TTTTTTTTTTTTTTTTGTACGTAAAAAAATATATAC [XGTACX_site1290],7.4
9,TTGTTATATTACAGTAGTACATTTAAAATCTACTAC [XGTACX_site2620],7.02
10,ATTTTTATTTACAACCCCAAAAAGGAAAAACATAAA [CACACA_negctrl_site1169],7.04
11,AATATTTATACTATAACACACATACAGACAAAAAAA [CACACA_site6396],7.15
12,TTACATTATATACATACACACCCACCCACAAAAAAA [CACACA_site8187],7.68
13,ATAATATCATCAAACGCACACATACATAAATATATT [CACACA_site5230],7.33
14,TATTTTTATAATATATGTACATATATATATATATTA [XGTACX_site5343],7.54
15,ACATATTATATGAATACACACAAAAACTTATCGGTA [CACACA_site3439],6.83
16,ACAGGAAAAAACAATTGTACATGTATATATATATAT [XGTACX_site7677],9.08
17,ATATATATATATATATGTACATATTTTATTTGAAAT [XGTACX_site7411],9.07
18,AAGACAATATATGCAGTGCATATACATACATATATA,8.3
19,GCATAATATACTCTTACACACCATTTCTAAATACAT [CACACA_site4912],7.53
20,AAAAAAAAAAAAAAAAGTACGTATTTTTTTTAAAAT [XGTACX_site2654],7.37
21,TATATTATTTATTAGACACACATTATTAATATATTT [CACACA_site1078],7.08
22,TGGATTTTGTATTAATGTACATATATATATATATAT [XGTACX_site4442],9.57
23,CAGATAGACTTATATGCATGCATTCACATACCAACA [TGCATGCA_site163],7.01

row,Sequence,gcPBM binding intensity (ln)
1,AACAACATTTTGTAATGTACATATTTACTTATATTC [XGTACX_site7251],6.85
2,CCTCTTAATATGTGCACACTAAATTATAACATAATT [CACACA_site3259],10
3,TGAAAAGTAAAATACACACACATAATCTAATTTATA [CACACA_site7024],6.76
4,GGTTAACATAAATATATACACACCAATGATGGCATT [CACACA_site1568],6.9
5,AAATAATTAGAAATAGTGCACATAATTAAGGGATAC,10.1
6,TAGAAATATATAAATTGTACATGTTTGTATAATATA [XGTACX_site2097],6.99
7,TATATTATTTATTTTTGTACATATTATGAATGAATA [XGTACX_site3971],6.99
8,TTACCTTTAAATGGATGTACAGAAATTTAAATTGTT [XGTACX_site7044],6.99
9,CTTCCTTCTAAATGCACACGGAAAGTATAAATGTAT [CACACA_site2501],8.34
10,TATTTGTTTTTATATAGTACATAAATATATATATAT [XGTACX_site7834],8.74
11,AAAATAAATATGAACACACACATTTATGCCTTTAAA [CACACA_site1271],6.81
12,AGAGATATAAGAAAAGCACACACACCCAAAAAAAAA [CACACA_site8917],6.91
13,TATATACAAAAAATATGTACATATATATATATATAT [XGTACX_site3497],9.34
14,AAAAAATAAATAAATACACACACACTAATATATATA [CACACA_site8488],7.67
15,ATTATTTATATTATGGTGCATAATTTTGGGTTTCTT,10.2
16,TCAGAGTGAAGTTATACACACATGGTTTTTTTTTTT [CACACA_site2116],6.73
17,AGAGAGAAAGCTATAACATGCAACAATTTTTAGAAA [TGCATGCA_site95],6.61
18,AGGAGGATATTACACAGTACCCAGTAACTCTACGGA [XGTACX_site1998],6.67
19,AAGTATGCGTTATATACACACATACATTTATATATC [CACACA_site6207],6.91
20,TTTTTTTGATAAAAGGTGCTACAAGATGAATACATA,8.51
